According to patent US20230382966A1, “NOVEL KLOTHO INTERACTION SITE IN THE C-TERMINUS OF FGF23” (INDIANA UNIVERSITY RESEARCH AND TECHNOLOGY CORPORATION, priority 2020, published 2023):
“Also recorded” adds a separate entry of the source. Not every detail of the peptide structures is certain; ends, links or a residue may be inferred. For some assays here: At least one structure is not confirmed: it was looked up by name or label, or the drawing left a doubt. Bridges are numbered along the chain shown (N, C = ends). Roman numbers before positions name the chains, in order. Where no end group is shown, it is not given here.

Legend:
[1] = biological target: T1, FGFR/KL-complex (Homo sapiens, UniProt Q9UEF7); assay: FGF23-antagonism measured by relative p-Erk levels in 293/KL cells; type: cell-based; conditions: for IC50: p-Erk
T1 construct: expressed in transfected cells; host or cells: 293T HEK cells overexpressing human KL (293/KL)
T1 sequence (Q9UEF7 34-1012): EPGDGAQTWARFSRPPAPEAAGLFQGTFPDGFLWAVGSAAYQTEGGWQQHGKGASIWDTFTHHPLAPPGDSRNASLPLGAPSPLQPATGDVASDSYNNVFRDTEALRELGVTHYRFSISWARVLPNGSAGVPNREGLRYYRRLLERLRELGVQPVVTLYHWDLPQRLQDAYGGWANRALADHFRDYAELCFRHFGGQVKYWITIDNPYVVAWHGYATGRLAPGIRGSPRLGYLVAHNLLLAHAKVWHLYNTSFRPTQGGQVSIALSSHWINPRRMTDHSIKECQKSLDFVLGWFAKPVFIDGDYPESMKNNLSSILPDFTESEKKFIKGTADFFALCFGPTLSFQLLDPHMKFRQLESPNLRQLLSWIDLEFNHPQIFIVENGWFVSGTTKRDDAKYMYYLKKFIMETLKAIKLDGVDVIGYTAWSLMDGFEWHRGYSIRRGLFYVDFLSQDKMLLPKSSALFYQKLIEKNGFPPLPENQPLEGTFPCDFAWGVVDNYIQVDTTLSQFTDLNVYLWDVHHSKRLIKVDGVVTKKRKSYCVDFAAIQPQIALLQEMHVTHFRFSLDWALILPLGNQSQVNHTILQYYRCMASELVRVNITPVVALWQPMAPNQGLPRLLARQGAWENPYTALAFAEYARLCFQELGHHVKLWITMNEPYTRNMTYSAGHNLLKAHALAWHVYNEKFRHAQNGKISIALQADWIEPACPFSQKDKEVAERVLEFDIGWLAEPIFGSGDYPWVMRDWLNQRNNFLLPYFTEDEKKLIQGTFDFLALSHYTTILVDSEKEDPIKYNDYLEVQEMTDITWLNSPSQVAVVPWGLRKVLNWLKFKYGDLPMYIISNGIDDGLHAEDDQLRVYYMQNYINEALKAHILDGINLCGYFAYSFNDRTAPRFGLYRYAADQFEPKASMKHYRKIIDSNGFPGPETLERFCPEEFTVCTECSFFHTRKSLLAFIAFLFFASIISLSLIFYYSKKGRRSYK
From the text: FIGS. 1A-1F Structure activity analysis among the two KL-interacting peptides C26 and C28. FIG. 1A provides a schematic representation of FGF23 showing the Amino terminal FGF23 core (amino acids 25-179) and the C-terminal portion that comprises two Klotho interaction sites “C26” (amino acids 180-205) and “C28” (amino acids 212-239); FIGS. 1B-1F are graphs presenting FGF23-antagonism measured by the relative p-Erk levels in 293/KL cells with increasing doses of the peptide antagonist. (FIG. 1B) compares C26 and C28; FIG. 1C is a graph showing the effect of the substitutions from C28 sequence into the C26 sequence on the peptide activity, comparing peptides C26(●), 1(▪), 2( ? ), 3(▴), and 4(○); FIG. 1D is a graph showing the effect of the substitutions from C28 sequence in the C26 sequence on the peptide activity, C28(●), 5(▪), 6( ? ), and 7(▴); FIGS. 1E & 1F are graphs showing the activity of shortened FGF23 C-terminal peptide antagonist in vitro. For FIG. 1E peptides C26(●), 8(▪), 9( ? ) are compared; For FIG. 1F peptides 6(●), 10(▪), 11( ? ), and 12(▴).
FIGS. 4A & 4B provide data relating to mutation of the C-terminal FGF23 peptides to assess their KL-interaction site by study of FGF23-activity antagonism in 293/KL cells. FGF23 C-terminal peptides tested for their ability to block FGF23-signaling measured by relative p-Erk levels are shown in FIG. 4A for peptides C26 (●), C28(▪), C26A1(T ? , FGF23^180-205, A^188), C28A2(▴, FGF23^212-239, A^222); and in FIG. 4B for peptides C72(●, FGF23^180-251), C72A1(▪, FGF23^180-251, A^188), C72 A2 ( ? , FGF23^180-251, A^222), C72A1A2(▴, FGF23^180-251, A^188,222). […]

[2] = test system: endogenous FGF23 action (kidney Cyp24a1, Cyp27b1 mRNA); assay: Mouse kidney gene expression after FGF23-antagonist peptide (quantitative real time PCR); type: in vivo; conditions: WT mice, 30 mg/kg single i.p. injection
[3] = Table 2, block of FGF23-signaling
[4] = Table 1, block of FGF23-signaling

| Substance | FGF23-antagonist activity (in words) [1] | IC50 [1, 3] [nM] | further results |
| --- | --- | --- | --- |
| ASDPLGVVRPRARM [Peptide 11] | enhanced potency relative to C26 |  |  |
| DPLGVVRPRARM [Peptide 12] | equivalent to the native C26 peptide; also recorded: comparable to C26 |  |  |
| DPLNVLKPRARM [Peptide 9] | full antagonist of FGF23 but of much reduced potency |  |  |
| ERDPLNVLKPRARM [Peptide 8] | retention of significant activity |  |  |
| I: SAEDDSERDPLNVLKPRARMTPAPASGPEGC / II: SAEDDSERDPLNVLKPRARMTPAPASGPEGC (disulfide I:31-II:31) [Peptide 17] |  | 2.2 ± 1.2 |  |
| I: SAEDNSPMASAPLGVVRPRARMTHAGGTGPEGC / II: SAEDNSPMASDPLGVVRPRARMTHAGGTGPEGC (disulfide I:33-II:33) [Peptide 22] |  | 3.4 ± 0.1 |  |
| I: SAEDNSPMASDPLGVVRGGRVNTHAGGTGPEGC / II: SAEDDSERDPLNVLKPRARMTPAPASGPEGC (disulfide I:33-II:31) [Peptide 19] |  | 2.7 ± 1.3 |  |
| I: SAEDNSPMASDPLGVVRGGRVNTHAGGTGPEGC / II: SAEDNSPMASDPLGVVRGGRVNTHAGGTGPEGC (disulfide I:33-II:33) [Peptide 18] |  | 3.1 ± 1.8 |  |
| I: SAEDNSPMASDPLGVVRPRARMTHAGGTGPEGC / II: SAEDNSPMASDPLGVVRPRARMTHAGGTGPEGC (disulfide I:33-II:33) [Peptide 20] |  | 1 ± 0.4 |  |
| PLIHFNTPIPRRHTRSAEDDSERDPLNVLKPRARMTPAPAS [C41] |  |  | IC50 [1, 4]: 27.8 ± 5.6 nM; enhancement of antagonistic potency relative to C26 ([1]; fold): two to three-fold |
| PMASDPLGVVRPRARM [Peptide 10] | enhanced potency relative to C26 |  |  |
| SAEDDSERAPLNVLKPRARMTPAPAS [C26 A1] | dramatic loss of antagonistic activity |  |  |
| SAEDDSERASDPLNVLKPRARMTPAPAS [Peptide 4] |  | 21.3 ± 11.7 | enhancement of antagonistic potency relative to C26 ([1]; fold): four-fold |
| SAEDDSERDPLNVLKGGRVNTPAPAS [Peptide 2] |  | 3590 ± 1780 | decrease of antagonistic potency relative to C26 ([1]; fold): forty-fold |
| SAEDDSERDPLNVLKPRARMTHAGGT [Peptide 3] | little difference | 77.7 ± 34.6 |  |
| SAEDDSERDPLNVLKPRARMTPAPAS [C26, reference compound] |  |  | IC50 [1, 4]: 92.3 ± 27.9 nM |
| SAEDDSERDPLNVLKPRARMTPAPASGPEGC [Peptide 13] |  | 107 ± 16.6 |  |
| SAEDDSPMASDPLNVLKPRARMTPAPAS [Peptide 1] |  | 18.7 ± 4.7 | enhancement of antagonistic potency relative to C26 ([1]; fold): five-fold |
| SAEDNSERDPLGVVRGGRVNTHAGGT [Peptide 5] |  | 143 ± 77 | loss of antagonistic potency relative to C28 ([1]; fold): four |
| SAEDNSPMASAPLGVVRGGRVNTHAGGT [C28 A2] | dramatic loss of antagonistic activity |  |  |
| SAEDNSPMASDPLGVVRGGRVNTHAGGT [C28] |  |  | IC50 [1, 4]: 36.2 ± 12.1 nM; enhancement of antagonistic potency relative to C26 ([1]; fold): three-fold |
| SAEDNSPMASDPLGVVRGGRVNTHAGGTGPEGC [Peptide 14] |  | 57.5 ± 16.3 |  |
| SAEDNSPMASDPLGVVRGGRVNTHAGGTGPEGCRPFAKFI [C40] |  |  | IC50 [1, 4]: 23.3 ± 7.4 nM |
| SAEDNSPMASDPLGVVRGGRVNTPAPAS [Peptide 7] |  | 157 ± 47.9 | loss of antagonistic potency relative to C28 ([1]; fold): six-fold |
| SAEDNSPMASDPLGVVRPRARMTHAGGT [Peptide 6] | enhanced by one order of magnitude | 3.7 | enhancement of antagonistic potency relative to C26 ([1]; fold): more than twenty-fold; enhancement of antagonistic potency relative to C28 ([1]; fold): ten-fold; enhancement of antagonistic potency relative to C26 ([1]; fold, listed as peptide 6): twenty-fold; kidney expression levels of target genes (Cyp24a1, Cyp27b1) ([2]; 24-hour post dosing): returned to baseline values; kidney Cyp24a1 mRNA level vs saline controls ([2]; 3 hours): significantly reduced; kidney Cyp27b1 mRNA level vs saline controls ([2]; 3 hours): reciprocally increased |
| SAEDNSPMASDPLGVVRPRARMTHAGGTGPEGC [Peptide 15] |  | 5.8 ± 1.1 |  |
